Measured values as given in PubChem BioAssay AID2147 (National Center for Advancing Translational Sciences (NCATS), 2009).
In all, about 230,000 compounds went through this assay and about 3,600 (1.6%) were called active. The inconclusive results got no clear call from the source; some entries with a clear call stand among them for comparison. The call rests on the fitted dose curve; in most records, active means well fitted inhibition curve with a large enough effect (not every such curve was filed as active); inconclusive means small, poorly fitted or top-dose-only effect, or another doubt; inactive means no such curve, though single readings can be large or run the other way. Potencies beside an inconclusive call are fits to weak or partial responses and may not hold up.

Molecular target: Lysine-specific demethylase 4E (Homo sapiens) (UniProt B2RXH2)
Chain of UniProt B2RXH2 (B2RXH2 whole entry, looked up, the tested form may be a part): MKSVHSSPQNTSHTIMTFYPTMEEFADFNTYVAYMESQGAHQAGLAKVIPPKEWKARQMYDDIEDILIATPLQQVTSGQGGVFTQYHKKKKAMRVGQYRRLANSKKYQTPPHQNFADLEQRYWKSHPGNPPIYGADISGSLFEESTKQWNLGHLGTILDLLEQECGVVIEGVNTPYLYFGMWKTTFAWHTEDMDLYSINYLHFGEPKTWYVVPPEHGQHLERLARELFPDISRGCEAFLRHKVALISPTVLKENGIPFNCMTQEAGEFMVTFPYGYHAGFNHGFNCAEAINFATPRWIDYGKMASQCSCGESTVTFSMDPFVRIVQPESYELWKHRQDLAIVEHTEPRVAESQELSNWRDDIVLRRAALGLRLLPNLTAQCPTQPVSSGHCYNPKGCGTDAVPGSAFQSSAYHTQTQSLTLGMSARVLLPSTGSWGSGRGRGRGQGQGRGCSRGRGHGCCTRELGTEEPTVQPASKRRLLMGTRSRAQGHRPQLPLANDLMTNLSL
Assay: qHTS Assay for Inhibitors of Human Jumonji Domain Containing 2E (JMJD2E)
Settings: JMJD2E catalytic domain, FDH-coupled NADH fluorescence (FDH is formaldehyde dehydrogenase); series mostly up to 57.1 µM
Further: nearly all actives have a fitted effect of over 50% in size.
Potency means the concentration at half of the fitted maximal effect; tags describe the fitted curve by direction and shape.
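Wherever activity change, negative = inhibition is given: 0% = wells with enzyme and -100% = buffer wells without enzyme.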

SMILES	Potency	activity change, negative = inhibition
O=C(Nc1nnc(SCc2ccccc2)s1)c1cccs1	inconclusive: 31.6 µM [inhibitor, partial curve]	
CNC(=O)c1cc2cc(OC)ccc2n1CCN(C)C	inconclusive: 35.5 µM [inhibitor, partial curve]	
CCN1CCc2c(sc(N)c2C#N)C1	inconclusive: 35.5 µM [inhibitor, partial curve]	
COc1cc(C)cc(C(=O)O)c1C1=C(O)c2cccc(O)c2C(=O)C1=O	inconclusive: 31.6 µM [inhibitor, single point]	
CC1(C2CC2)NC(=O)N(CC(=O)Nc2ccccc2-c2ccccc2)C1=O (centres undefined)	inactive	
CCC/C=C(\CCC)C(NC(=O)Oc1ccc(F)cc1)c1ccc(C(=O)OC)cc1 (centres undefined)	inactive	
CCCn1nc2cc(C(=O)NCC34CC5CC(CC(C5)C3)C4)ccc2c1OCC	inconclusive: 35.5 µM [inhibitor, single point]	
CC(C)OCCCNC(=O)c1cc2c(=O)n(C)c3ccccc3c2n1C	inconclusive: 31.6 µM [inhibitor, partial curve]	
CCN(Cc1ccccc1)S(=O)(=O)c1ccc(S(=O)(=O)N(Cc2ccccn2)Cc2ccco2)cc1	inactive	
CCCN(CCC)CCCNC(=S)Nc1ccc2nc(N3CCN(C)CC3)cc(C)c2c1	inconclusive: 28.2 µM [inhibitor, single point]	
CCCSc1nsc(NC(=O)c2cccnc2OCC)n1	inconclusive: 31.6 µM [inhibitor, single point]	
CC(C)/C=C1\CCc2c([nH]c3ccccc23)C1=O	inconclusive: 39.8 µM [inhibitor, single point]	
Cc1cc(N2CCN(C)CC2)nc2ccc(NC(=S)NCc3cccs3)cc12	inconclusive: 17.8 µM [inhibitor, partial curve]	
COc1ccc(C2Nc3ccccc3C(=O)N2c2ccc(C)cc2)cc1COc1ccccn1 (centres undefined)	inconclusive: 28.2 µM [inhibitor, partial curve]	
CCC(C)Nc1nc(N)c([N+](=O)[O-])c(Nc2cc(OC)ccc2OC)n1 (centres undefined)	inconclusive: 35.5 µM [inhibitor, single point]	
CCC12CCCN3CCC4(C(=C(C(=O)OC)C1)Nc1ccccc14)C32 (centres undefined)	inconclusive: 28.2 µM [inhibitor, single point]	
O=C(NC(=S)Nc1ccccn1)c1ccc([N+](=O)[O-])cc1	inactive	
N=C1C(c2nc3ccccc3s2)=C(O)CN1C1CCCCC1	inconclusive: 8.91 µM [inhibitor, single point]	
COC(=O)Cc1c(C)c2ccc(OCC(=O)NCc3ccc4c(c3)OCO4)cc2oc1=O	inconclusive: 39.8 µM [inhibitor, single point]	
O=C(Nc1nnc(-c2ccncc2)o1)c1ccccc1	inconclusive: 31.6 µM [inhibitor, single point]	
CCCn1c(NC(=O)c2ccccc2)nc2ccccc21	inconclusive: 28.2 µM [inhibitor, single point]	
COC(=O)C1=C(C(=O)OC)C2(OC1c1ccccc1C)C(=O)c1ccccc1C2=O (centres undefined)	inconclusive: 3.16 µM [inhibitor, single point]	
CCOc1ccc(C2C=C(c3ccc(C)cc3)Nc3ncnn32)cc1 (centres undefined)	inconclusive: 31.6 µM [inhibitor, partial curve]	

SMILES	Potency	activity change, negative = inhibition
O=C(c1ccccc1)c1ccc(N2CCCC2)cc1	inactive	
CCOC(=O)c1c(C)[nH]c(C=C2C(=O)CCCC2=O)c1O	inconclusive: 39.8 µM [inhibitor, single point]	
CCOC(=O)c1c(NC(=O)C2CCCN(S(=O)(=O)c3ccc(C)cc3)C2)sc2c1CCCC2 (centres undefined)	inconclusive: 3.55 µM [inhibitor, single point]	
CCCCCC(=O)NNC(=S)NC(=O)c1ccccc1[N+](=O)[O-]	inconclusive: 31.6 µM [inhibitor, single point]	
Cc1nnc(NC(=O)CSc2cn(Cc3ccccc3)c3ccccc23)s1	inactive	
COc1ccc(N2CCN(C(=O)c3cc(-c4cccs4)nc4ccccc34)CC2)cc1	inconclusive: 31.6 µM [inhibitor, partial curve]	
O=C(O)c1ccccc1-c1ccc(/C=C/c2cc(C(F)(F)F)[nH]c(=O)n2)o1	inconclusive: 28.2 µM [inhibitor, partial curve]	
COC(=O)[C@@]1(Cc2ccc(F)cc2)[C@H]2c3cc(C(=O)N(C)C)n(Cc4nc5ccccc5[nH]4)c3C[C@H]2CN1C(=O)c1ccccc1	inconclusive: 25.1 µM [inhibitor, single point]	
Cc1ccc(N=Cc2c(C)[nH]n(-c3nc4ccccc4[nH]3)c2=O)cc1	inconclusive: 31.6 µM [inhibitor, single point]	
COc1ccc2oc(C(=O)NCCC(C)C)c(C)c2c1	inconclusive: 25.1 µM [inhibitor, partial curve]	
COc1ccc(C2Nc3ccccc3C(=O)N2Cc2ccco2)cc1COc1ccc(F)cc1 (centres undefined)	inactive	
CCCCC1=CC2=CC(=O)C(C)(OC(=O)CC)C(=O)C2=CN1C(CO)CO (centres undefined)	inconclusive: 14.1 µM [inhibitor, single point]	inactive: 6.58% [at 11.4 µM]
COc1ccc(Br)cc1CNC(=O)CCCc1cn(C)c2ccccc12	inconclusive: 35.5 µM [inhibitor, single point]	
Cn1c(=O)n(C)c2cc(/C=N/NC(=O)c3ccc(Cl)cc3)ccc21	inconclusive: 31.6 µM [inhibitor, partial curve]	
COC(=O)C1=C(C)N(Cc2ccc(OC)cc2)C(=O)C1	inconclusive: 15.8 µM [inhibitor, single point]	
CC(C)(O)C(O)COc1c2ccoc2cc2oc(=O)ccc12 (centres undefined)	inconclusive: 28.2 µM [inhibitor, single point]	
CCCOCC1CC2(CC(C)(c3csc(N)n3)OC2=O)C(=O)O1 (centres undefined)	inactive	
Cc1ccc(C(C[N+](=O)[O-])Sc2ccc(N)cc2)cc1 (centres undefined)	inactive	
COC(=O)COc1ccccc1/C=C1/NC(=O)NC1=O	inactive	
CCCc1ccc(C(=O)NNC(=O)c2ccc(Cl)cc2)cc1	inconclusive: 8.91 µM [inhibitor, partial curve]	
CCCNC(=O)c1ccccc1NS(=O)(=O)c1ccc2c(c1)OCCO2	inconclusive: 25.1 µM [inhibitor, partial curve]	
COc1ccc(CSc2nnnn2Cc2ccccc2)cc1OC	inactive	
COC(=O)c1cccc(S(=O)(=O)N2CCC(C)CC2)c1	inconclusive: 39.8 µM [inhibitor, single point]	

SMILES	Potency	activity change, negative = inhibition
O=[N+]([O-])c1ccc(-c2csc(N3CCc4ccccc4C3)n2)cc1	inactive	
COc1ccc(NCc2ccc([N+](=O)[O-])s2)c(OC)c1	active: 10 µM	
Cc1ccccc1-c1nnc(NC(=O)c2ccc(N3C(=O)CCC3=O)cc2)s1	inconclusive: 31.6 µM [inhibitor, single point]	
O=C(CNc1ccc(Cl)cc1)NNC(=S)NCc1ccccc1	inactive	
CN(C(=O)NC(=O)C1=C(N2CCOCC2)/C(=C/c2ccccc2)CC1)S(C)(=O)=O	inconclusive: 28.2 µM [inhibitor, partial curve]	
COc1cccc(C2CC(=O)C3=C(C2)Nc2ccccc2N(C(=O)CCC(=O)O)C3c2ccc(F)cc2)c1 (centres undefined)	inconclusive: 28.2 µM [inhibitor, partial curve]	
O=C(c1ccccc1)N1CCN(C2CC3CCC2C3)CC1 (centres undefined)	inconclusive: 39.8 µM [inhibitor, single point]	
CCC(C)n1c(/C=C/c2ccccc2)nc2ccccc21 (centres undefined)	inconclusive: 28.2 µM [inhibitor, partial curve]	
Cc1ccc(NC(=O)CSC2=C(C#N)C(c3ccco3)CC(=O)N2)cc1 (centres undefined)	inactive	
Cc1cc2c(c(N)n1)c(=O)oc1ccccc12	inconclusive: 6.31 µM [inhibitor, full curve]	
O=C(O)C1=C[C@@H](c2ccc3c(c2)OCO3)C[C@@H](OCCCCO)O1	inconclusive: 31.6 µM [inhibitor, single point]	
COc1cc2[nH]c(=O)n(Cc3ccc(C(=O)NC4CCN(Cc5ccccc5)CC4)cc3)c(=O)c2cc1OC	inconclusive: 22.4 µM [inhibitor, partial curve]	
O=C(CC1C(=O)NCCN1Cc1c(F)cccc1Cl)NC1CCCC1 (centres undefined)	inactive	
CCOC(=O)C1(Cc2ccccc2Cl)CCN(S(C)(=O)=O)CC1	inactive	
O=C(COc1cccc2ccccc12)NNC(=O)c1cnccn1	inconclusive: 35.5 µM [inhibitor, single point]	
COc1ccc(C2C(C#N)=C(N)OC3=C2C(=O)CC(C)(C)C3)cc1Cn1nc(C)c([N+](=O)[O-])c1C (centres undefined)	inactive	
Cc1ccc(NC(=O)CN2C(=O)S/C(=C\c3ccc(-c4cccc(C(=O)O)c4C)o3)C2=O)cc1C	inconclusive: 3.55 µM [inhibitor, single point]	
Cc1nc2ccccn2c1C(=O)N/N=C/c1ccc(CNC(=O)C(=O)Nc2ccccc2)o1	inconclusive: 39.8 µM [inhibitor, single point]	
CC1CCN(c2c(NCc3ccc(C(=O)N(C)C4CCCCC4)cc3)c(=O)c2=O)CC1	inactive	
O=C(COC(=O)c1ccc2ncsc2c1)NC(=O)NCc1ccccc1	inconclusive: 31.6 µM [inhibitor, partial curve]	
Cn1cccc1CC(=O)NNC(=S)Nc1ccccc1Cl	inactive	
COCC(=O)NCCNc1nc2ccc(C)cc2cc1C	inconclusive: 25.1 µM [inhibitor, partial curve]	
